Target: CD33-expressing HEK-293 cells (Homo sapiens, UniProt P20138)
Experiment: Flow cytometry (FACS titration) binding to CD33-expressing HEK-293 cells
Conditions: 4° C. for 2 hours

Sequence of CD33-expressing HEK-293 cells (P20138 18-364): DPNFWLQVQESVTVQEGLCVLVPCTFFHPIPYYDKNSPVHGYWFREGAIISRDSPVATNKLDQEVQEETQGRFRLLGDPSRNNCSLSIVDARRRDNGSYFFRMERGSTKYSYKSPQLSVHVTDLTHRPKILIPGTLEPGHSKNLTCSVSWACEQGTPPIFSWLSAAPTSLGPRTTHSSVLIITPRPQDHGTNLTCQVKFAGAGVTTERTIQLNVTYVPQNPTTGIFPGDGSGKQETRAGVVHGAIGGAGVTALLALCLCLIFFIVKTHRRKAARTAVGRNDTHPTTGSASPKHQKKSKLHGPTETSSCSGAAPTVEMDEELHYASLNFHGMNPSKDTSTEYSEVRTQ

B1: mAb2: negative control human anti-CMV IgG; heavy chain SEQ ID NO: 14, light chain SEQ ID NO: 15 (antibody)
heavy: EEQVLESGGGLVKPGGSLRLSCAASGFTFSPYSVFWVRQAPGKGLEWVSSINSDSTYKYYADSVKGRFTISRDNAENSIFLQMNSLRAEDTAVYYCARDRSYYAFSSGSLSDYYYGLDVWGQGTTVIVSS[sequence of human IgG1 constant region not given]
light: DIVMTQSPLSLSVTPGEPASISCRSSQSLLHTNGYNYLDWYVQKPGQSPQLLIYLASNRASGVPDRFSGSGSGTDFTLKISRVETEDVGVYYCMQALQIPRTFGQGTKVEIKRTVAAPSVFIFPPSDEQLKSGTASVVCLLNNFYPREAKVQWKVDNALQSGNSQESVTEQDSKDSTYSLSSTLTLSKADYEKHKVYACEVTHQGLSSPVTKSFNRGEC
  binding to CD33-expressing HEK-293 cells: No binding was observed
